Results on 86 sequences are retold here after the supplement of paper PMC3334620.

Over roughly 33,000 sequences, “E-score (-0.5 to 0.5)” has its median near -0.012; the highest 2% begin near 0.29. The list shows a part of the results.

This test addresses T1, Ybr033w (UniProt P38073).
T1 sequence: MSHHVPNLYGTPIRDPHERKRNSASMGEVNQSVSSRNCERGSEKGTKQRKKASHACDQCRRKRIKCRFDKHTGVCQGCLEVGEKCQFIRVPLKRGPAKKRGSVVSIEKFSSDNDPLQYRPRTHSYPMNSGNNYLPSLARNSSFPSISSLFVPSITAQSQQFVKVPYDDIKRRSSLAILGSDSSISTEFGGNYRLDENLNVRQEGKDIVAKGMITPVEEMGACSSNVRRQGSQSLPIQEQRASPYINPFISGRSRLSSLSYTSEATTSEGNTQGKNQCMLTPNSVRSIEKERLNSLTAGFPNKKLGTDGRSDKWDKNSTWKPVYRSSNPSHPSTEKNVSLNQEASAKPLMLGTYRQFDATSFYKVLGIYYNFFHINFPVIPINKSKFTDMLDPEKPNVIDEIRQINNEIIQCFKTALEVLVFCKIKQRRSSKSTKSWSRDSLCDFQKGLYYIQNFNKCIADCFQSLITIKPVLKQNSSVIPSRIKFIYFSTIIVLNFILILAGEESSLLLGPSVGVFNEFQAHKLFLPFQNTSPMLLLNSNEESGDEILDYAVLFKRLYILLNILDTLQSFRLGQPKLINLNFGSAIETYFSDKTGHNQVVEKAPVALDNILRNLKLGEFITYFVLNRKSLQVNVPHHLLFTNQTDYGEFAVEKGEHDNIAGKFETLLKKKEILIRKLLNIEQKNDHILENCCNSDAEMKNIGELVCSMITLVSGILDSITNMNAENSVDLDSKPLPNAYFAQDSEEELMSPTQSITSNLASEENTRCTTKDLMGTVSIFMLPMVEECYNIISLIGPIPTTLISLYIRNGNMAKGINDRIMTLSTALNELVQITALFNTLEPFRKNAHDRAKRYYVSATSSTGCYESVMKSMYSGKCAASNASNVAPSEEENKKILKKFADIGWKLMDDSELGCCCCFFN
Nature of the test: PBM E-score (8-mer binding enrichment) (E-score (-0.5 to 0.5)); higher = stronger / more preferred TF binding; most listed sequences are background and not binding sites. The conditions noted are these: protein concentration: 200 nM; construct: GST-full length. A digest of the protocol:
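The E-score, a modified Wilcoxon-Mann-Whitney statistic, was computed by the Universal PBM Analysis Suite for every ungapped eight-base word pooled with its reverse complement. Scans behind it were normalised with masliner after bound GST-tagged yeast transcription factors were detected with fluorescent anti-GST. The proteins, at about 100-200 nM, had been applied to universal all-10-mer Agilent arrays made double-stranded by primer extension.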
In the case of TATAGGCA, the “PBM E-score” value was -0.031.
Turning to AATTAAAT, the “PBM E-score” value is 0.276.
The value for CCATTTCC was -0.00462.
Take CAGCCGAG: the “PBM E-score” value was -0.145.
Take GCGTTTTA: the “PBM E-score” value was found to be 0.0531.
With CACGATAC, the “PBM E-score” value is -0.172.
Turning to CTGTCTCA, the “PBM E-score” value is -0.14.
With AGGGCCAC, the “PBM E-score” value was -0.19.
As for AGTGCGGA, the “PBM E-score” value amounted to 0.28.
Consider CCGGCTCC, for which the “PBM E-score” value was -0.21.
As to CAATATCC, the “PBM E-score” value amounted to 0.253.
As for GTTCGACA, the “PBM E-score” value was found to be 0.0661.
For ACGTAATG, the “PBM E-score” value is -0.0331.
As for AGCTTTGG, the “PBM E-score” value is -0.0527.
The value for AAACAGAT was 0.148.
In the case of ATCCCTGA, the “PBM E-score” value is -0.0831.
Turning to AGGGTCCC, the “PBM E-score” value is -0.265.
With CCGAAAAG, the “PBM E-score” value is 0.127.
In the case of GCGAAGCC it was -0.268; in that of GTGCCAAC, 0.0403.
The value for ATGGGAGA was -0.126; that for CTGTTTCA was 0.0573; that for TAAACTTA was 0.166.
For the sequence AGGCGCGG, the “PBM E-score” value is -0.246.
Turning to GGAGAACC, the “PBM E-score” value was -0.108.
Regarding AAAATCGT, the “PBM E-score” value came to 0.195.
For CAGAGCGC, the “PBM E-score” value is -0.205.
AGATCCAT: the “PBM E-score” value turned out to be 0.00666.
For CTCAGGAA, the “PBM E-score” value was found to be 0.134.
On to GATTAGGA, for which the “PBM E-score” value is 0.0215.
In the case of TTAAGCAA it was 0.164.
For the sequence CTGAGACA, the “PBM E-score” value was -0.194.
As for AGTTTAAG, the “PBM E-score” value was found to be 0.0764.
For ATCCAGTG, the “PBM E-score” value was 0.149.
Regarding CCGCGTTA, the “PBM E-score” value is -0.095.
For ACGTCGGG, the “PBM E-score” value is -0.399.
As to GCCGGACA, the “PBM E-score” value was -0.103.
In the case of CTCCTGGA it was -0.122; in that of GCGCTCGA, -0.181.
In the case of TAATTCTA, the “PBM E-score” value was found to be 0.288.
Take AGCCCATA: the “PBM E-score” value came to 0.0408.
In the case of GACTGTGA it was 0.0158; in that of AGCTCTTA, -0.114; in that of GGCCGCCA, -0.319.
Take CCATCTCC: the “PBM E-score” value is -0.132.
The value for CTAGATGC was -0.132; that for AGGATTCC was -0.196.
In the case of AGGAACCT, the “PBM E-score” value stood at 0.0186.
The value for ACTCGCTC was 0.00902; that for ATAGGCAA was -0.023.
Consider ATGTTATA, for which the “PBM E-score” value is 0.151.
In the case of CGTCGGAA it was 0.162.
As to AGGCTTAA, the “PBM E-score” value is -0.111.
For AAATGAAA, the “PBM E-score” value was 0.268.
As to CGACTCGA, the “PBM E-score” value is -0.0473.
ATCTCCGC: the “PBM E-score” value was -0.126.
The value for GGTATGTA was -0.00685; that for CAAGAACA was 0.0281; that for ACCCATCT was -0.0859.
In the case of CCACTTGC it was -0.0925.
For CTCCGAAA, the “PBM E-score” value amounted to 0.0352.
ACGAGGGA: the “PBM E-score” value came to 0.00094.
As for CGCAAAGC, the “PBM E-score” value is -0.128.
Turning to GAGATGGA, the “PBM E-score” value was -0.197.
As for GAGAAACA, the “PBM E-score” value worked out at 0.247.
In the case of CGGAGGGA it was -0.057.
As for GCAGCGGC, the “PBM E-score” value was -0.182.
Turning to AAAGCCGC, the “PBM E-score” value is -0.0549.
For the sequence ATCCCTAA, the “PBM E-score” value is -0.195.
Consider CGGCCAAC, for which the “PBM E-score” value is -0.188.
Take GAGTGTGA: the “PBM E-score” value turned out to be 0.0244.
On to CACACGTA, for which the “PBM E-score” value was -0.138.
In the case of CCGTTGCG, the “PBM E-score” value was -0.192.
In the case of ACGGTTAT it was -0.0962; in that of CAATGAGA, 0.00572.
Turning to ACCGTCCT, the “PBM E-score” value was -0.0333.
The value for CCTTGGAG was -0.035; that for AGGTAGTG was -0.0879.
For AACGATTG, the “PBM E-score” value was -0.00547.
Turning to AAATTGGA, the “PBM E-score” value is 0.172.
As to ACCAGGTA, the “PBM E-score” value was -0.225.
Take ATGTCGGA: the “PBM E-score” value came to 0.0711.
Regarding GAATTACA, the “PBM E-score” value stood at 0.208.
Turning to GCGGGAAA, the “PBM E-score” value was 0.128.
Consider AGATCGAA, for which the “PBM E-score” value worked out at 0.249.
Consider CTCTCGCC, for which the “PBM E-score” value is -0.231.
